Whole data set: some 110,000 compounds, median “z-score” near -0.1, cut for the highest 2% near 2. The list shows a part of the results.

The target of this test is Metabotropic glutamate receptor 8 (Rattus norvegicus) (UniProt P70579). Put plainly: rat mGluR8 modulators via GIRK flux, primary screen, cell-based, thallium flux, HTS (AID 488969). The conditions noted are these: HEK293 rat mGluR8, GIRK (G protein-gated inwardly rectifying potassium channel) thallium flux, FluoZin2; at 10 µM; stronger effect = higher value; submaximal glutamate (EC20) added with thallium.
Sequence of UniProt P70579 (P70579 whole entry, looked up): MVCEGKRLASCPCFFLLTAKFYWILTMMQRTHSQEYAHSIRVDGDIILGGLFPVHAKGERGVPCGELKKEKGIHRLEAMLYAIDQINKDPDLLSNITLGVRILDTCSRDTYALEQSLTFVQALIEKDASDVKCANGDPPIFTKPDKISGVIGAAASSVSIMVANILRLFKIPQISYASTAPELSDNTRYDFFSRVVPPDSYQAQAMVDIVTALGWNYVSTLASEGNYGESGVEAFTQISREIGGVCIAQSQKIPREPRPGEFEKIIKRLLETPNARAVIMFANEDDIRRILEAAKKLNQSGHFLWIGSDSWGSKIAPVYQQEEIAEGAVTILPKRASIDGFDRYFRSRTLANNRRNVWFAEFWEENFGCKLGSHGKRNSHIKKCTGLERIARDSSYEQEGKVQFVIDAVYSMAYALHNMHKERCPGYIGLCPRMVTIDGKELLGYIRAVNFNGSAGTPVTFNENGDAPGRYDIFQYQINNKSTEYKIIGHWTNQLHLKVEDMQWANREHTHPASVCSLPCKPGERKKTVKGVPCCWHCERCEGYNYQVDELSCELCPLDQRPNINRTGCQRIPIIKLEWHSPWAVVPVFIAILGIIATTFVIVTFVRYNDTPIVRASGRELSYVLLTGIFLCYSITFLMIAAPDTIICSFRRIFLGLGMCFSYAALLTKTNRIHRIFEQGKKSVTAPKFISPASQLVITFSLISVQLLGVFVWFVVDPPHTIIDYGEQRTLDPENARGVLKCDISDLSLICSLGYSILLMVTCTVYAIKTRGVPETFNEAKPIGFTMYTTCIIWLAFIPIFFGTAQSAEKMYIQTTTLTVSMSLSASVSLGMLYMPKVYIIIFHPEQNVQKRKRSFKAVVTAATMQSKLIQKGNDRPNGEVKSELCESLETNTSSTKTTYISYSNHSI
`CCOc1ccccc1OCC(O)CNC` (stereo unspecified) displayed a z-score of -0.205.

For the compound `O=c1ccnc(SCc2ccccc2Cl)[nH]1`, the z-score turned out to be 0.253. The result for `CCOC(=O)CSC1=C(C#N)C(c2ccco2)C(C(=O)OCc2ccccc2)=C(C)N1` (stereo unspecified) reads -0.792; that for `O=S(=O)(Cc1ccccc1)N1CCc2ccccc2C1`, -0.226; that for `COc1cccc(OC)c1C(=O)Nc1ccc(Cc2ccncc2)cc1`, -0.044.

Regarding `O=C(CSC(=S)N1CCN(c2ccccc2)CC1)Nc1nc(-c2ccccc2)c(-c2ccccc2)o1`, the z-score is -0.0942. Compound `CCN(C(=O)COc1ccc(C)nc1[N+](=O)[O-])C1CCS(=O)(=O)C1` (stereo unspecified) returned a z-score of 0.0109. The result for `Cc1ccc2nc(C(C)O)[nH]c2c1` (stereo unspecified) reads 0.609; that for `CCOc1ccc2c(c1)nc(SCC(=O)c1cccs1)n2C`, -0.425; that for `O=C(Cn1c(=O)n(Cc2ccco2)c(=O)c2c3c(sc21)CCCC3)Nc1ccccc1`, -0.173.

In the case of `O=C(/C=C/c1ccccc1)N1CCN(c2cccc(Cl)n2)CC1`, the z-score is -0.256. In the case of `Cc1ccc(N(CC(O)CN2CCCC2)S(=O)(=O)c2ccc(C)cc2)cc1` (stereo unspecified), the z-score turned out to be 0.249. The result for `Cc1nn(C)c(C)c1S(=O)(=O)N1CCCC(C(=O)N2CCN(c3ccccc3)CC2)C1` (stereo unspecified) reads -0.737; that for `COc1ccc(OC)c(-n2nnnc2SCC(=O)NCCc2ccccc2)c1`, -0.173.

Turning to `COc1ccc(CCNC(=O)C(=O)N2CCCCC2)cc1OC`, the z-score is -0.382. The compound `COc1ccc(OC)c(C2=C[N+](=O)C(C)(C)C(C)(C)N2[O-])c1` came in with a z-score of -0.0397. The same measure for `CCCCCn1c(=O)[nH]c2c(c1=O)CCC2`: -0.159; for `C=CCOc1ccc(C2C(C#N)=C(N)N(Nc3ccccc3)C3=C2C(=O)CCC3)cc1OC` (stereo unspecified): -0.102. The same measure for `CCOC(=O)c1sc(/N=C/Nc2nc(C)c(C(=O)OCC)s2)nc1C`: 0.48.

`COc1cc(C2CC(C(F)(F)F)n3ncc(C(=O)O)c3N2)cc(OC)c1OC` (stereo unspecified): the z-score is -0.0559.

`CC1(C)C(N(O)C(=O)Nc2ccc(Cl)cc2)N(c2ccc(Cl)cc2)C(=O)N1CC(=O)NN` (stereo unspecified) yielded a z-score of -0.12. The result for `Cc1cc2ncn(C3CC(=O)N(Cc4ccc(N5CCCC5=O)cc4)C3=O)c2cc1C` (stereo unspecified) reads 0.382; that for `Cc1cc(C)n(-c2nc(-c3ccc(Cl)c(Cl)c3)cs2)n1`, -0.118. The result for `CCOC(=O)Cn1c(=O)c(-c2ccccc2NCc2ccccc2)nc2ccccc21` reads -0.104. The same measure for `CC(=O)CCN1CCOCC1`: -0.498; for `C/C(=N\NC(=O)C(=O)Nc1ccc(C)cc1)c1ccncc1`: -0.299; for `CCOc1ccc2nc(NC(=O)C(CCSC)NS(=O)(=O)c3cccs3)sc2c1` (stereo unspecified): -0.564. In turn, `Cc1ncoc1C(=O)Nc1ccc(Oc2ccccc2)cc1` displayed a z-score of 2.26.

For the compound `Cc1ccc(C(=O)/C=C2\NCCNC2=O)cc1`, the z-score came to 1.4. The result for `O=C(CSc1nnc(CNc2ccc(F)cc2)n1Cc1ccccc1)N1CCOCC1` reads 0.339. `O=C1NC(=O)c2cc(NC(=O)C3CCCCC3)ccc21` came in with a z-score of -0.231.

For the origin of these results see PubChem BioAssay AID488969 (Vanderbilt High Throughput Screening Facility, 2010).
